Test results from the RNAGym collection of RNA variant scans (doi:10.1093/nar/gkz1192).
Read counts are not given, so values of variants with three or more changes are uncertain.

B1: CPEB3 Ribozyme (parent)
chain: UAACAGGGGGCCACAGCAGAAGCGUUCACGUCGCAGCCCCUGUCAGAUUCUGGUGAAUCUGCGAAUUCUGCUGUAUAUCUC

Variants of: B1
Assay: self-cleavage, relative activity (ratio to wild type); higher = more cleavage; in vitro, sequencing
Method in brief: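 CPEB3 self-cleaving ribozyme mutant libraries were made by rounds of error-prone PCR, barcoded, and transcribed in vitro with T7 RNA polymerase for 5 hours at 37°C. Cleavage occurred during transcription and a 15 min DNase I step before EDTA stop. RNAs were reverse transcribed with template switching and Illumina-sequenced, with DNA sequencing mapping barcodes to variants. Relative activity is the variant's cleaved/total read fraction divided by wild type's (minimum 5 reads), averaged across three batches.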

| Variant | self-cleavage |
| --- | --- |
| A35G U43C U49C | 0.66 |
| A35G U43C U66C U67A | 0.24 |
| A35G U43C U67C C81U | 0.19 |
| A35G U43G U69C U76C | 0.08 |
| A35G U48A U54C U72A G73C U76C U80C | 1.18 |
| A35G U48A U58C U66C | 0.16 |
| A35G U49A A56G C79A | 1.1 |
| A35G U49A A56U | 1.25 |
| A35G U49A U51C U54A | 1.24 |
| A35G U49C G52A U74C | 1.21 |
| A35G U49C G55C U80C C81U | 1.03 |
| A35G U49C U51C A64G U74G | 0.33 |
| A35G U49C U58C U60A | 0.1 |
| A35G U51A C59A | 1.22 |
| A35G U51A U72C | 1.27 |
| A35G U51C U58A | 1.14 |
| A35G U51G C59A | 1.07 |
| A35G U51G U54C U66C | 1.21 |
| A35G U51G U67C | 0.93 |
| A35G U51G U80A | 1.3 |
| A35G U54A A57G | 1.23 |
| A35G U54A A64G U72C U78A | 1.31 |
| A35G U54C A56U | 1.17 |
| A35G U54G A75U | 1.29 |

| Variant | self-cleavage |
| --- | --- |
| A35G U58A A75G | 1.02 |
| A35G U60A C81U | 1.24 |
| A35G U60A G63A U69C | 0.81 |
| A35G U60A U72A | 0.63 |
| A35G U60C A64G A77G | 0.83 |
| A35G U60C C62A U74A | 0.47 |
| A35G U66A U69A U74C | 0.73 |
| A35G U66A U78C | 1.24 |
| A35G U66C A77G | 1.33 |
| A35G U67A U72A | 1.09 |
| A35G U67C U74A | 0.59 |
| A35G U67C U80C | 0.66 |
| A35G U69C G70C U80C | 0.32 |
| A35G U72C U78C U80C | 1.23 |
| A35U A45C U49G | 0.39 |
| A35U A45C U60C | 0.09 |
| A35U A45C U72C | 0.11 |
| A35U A45G A56U U74A U80C | 0.25 |
| A35U A45G A65U | 0.1 |
| A35U A47G U60C A77G | 0.15 |
| A35U A47G U76C | 0.35 |
| A35U A47U U54C U66C | 0.07 |
| A35U A47U U58C | 0.27 |
| A35U A56G U58A | 0.4 |

| Variant | self-cleavage |
| --- | --- |
| A35U A56G U60A | 0.1 |
| A35U A56G U60G | 0.12 |
| A35U A56G U67G U72G U80A | 0.07 |
| A35U A56G U78A | 0.38 |
| A35U A57G C62G | 0.18 |
| A35U A65G U80C | 0.24 |
| A35U A65U U74C | 0.14 |
| A35U A75G A77G | 0.26 |
| A35U C37A U43C | 0.18 |
| A35U C37U U41C A64G | 0.18 |
| A35U C38U U60A U67C | 0.08 |
| A35U C40A U43A U49C A56G U72A | 0.1 |
| A35U C40A U72A | 0.35 |
| A35U C40U U41A | 0.1 |
| A35U C44U A57U G70C U80C | 0.11 |
| A35U C59G C68G | 0.1 |
| A35U C62U A64U | 0.15 |
| A35U C62U U74G | 0.13 |
| A35U G53A A64U | 0.15 |
| A35U G70C U80C | 0.15 |
| A35U U41A A45C C71G U76A | 0.03 |
| A35U U41A A64U | 0.19 |
| A35U U41A U48C | 0.25 |
| A35U U41C A57G | 0.36 |

| Variant | self-cleavage |
| --- | --- |
| A35U U41C A57G U76C | 0.6 |
| A35U U41C G42C U66C | 0.13 |
| A35U U41C U60C U69C U72C U80C | 0.16 |
| A35U U43A A57G U78C | 0.18 |
| A35U U43A U58G | 0.17 |
| A35U U43C A57G U60A A77G | 0.07 |
| A35U U43C U48C C68A | 0.1 |
| A35U U43C U49C A56U U69C | 0.08 |
| A35U U43C U51C | 0.26 |
| A35U U48A U69C | 0.41 |
| A35U U48C U67C U69C | 0.13 |
| A35U U49C A57G A64U | 0.07 |
| A35U U51A G53A U54G U78A | 0.54 |
| A35U U51A U54A C79A | 0.72 |
| A35U U51C A57G U69A | 0.24 |
| A35U U51C G63U U76A | 0.36 |
| A35U U51C U67C | 0.33 |
| A35U U51C U80C | 0.69 |
| A35U U54C A64G | 0.35 |
| A35U U54C G73U A77G | 1.21 |
| A35U U54G U60C | 0.14 |
| A35U U58A C62U | 0.08 |
| A35U U58C G70A U78A U80A | 0.12 |
| A35U U58C U72G | 0.16 |

| Variant | self-cleavage |
| --- | --- |
| A35U U60C A64U | 0.39 |
| A35U U72C U80C | 0.67 |
| A35U U78C U80C | 0.4 |
| G36A A45G A75C | 0.19 |
| G36A A57G U60A U66A U69C | 0.1 |
| G36A C40U U43C U66C U69A | 0.13 |
| G36A U41G U48C A57G U74A | 0.09 |
| G36A U49A G52C U54C G61U U69C | 0.07 |
| G36A U51A G73U | 0.28 |
| G36A U54C U72A | 0.14 |
| G36A U58C U60C A77G U78C | 0.05 |
| G36A U58C U69C U80A | 0.12 |
| G36A U60A A75G | 0.17 |
| G36C A64U U72C | 0.11 |
| G36C C37A A57U | 0.24 |
| G36C C40A U54A | 0.32 |
| G36C G42A A75U | 0.21 |
| G36C U41A G61C | 0.08 |
| G36C U41G U60A U76A | 0.09 |
| G36C U43C U69C | 0.11 |
| G36C U49C A56G | 0.16 |
| G36C U51A A75U | 0.11 |
| G36U C71G A75U | 0.11 |
| G36U U41C U67C | 0.06 |

| Variant | self-cleavage |
| --- | --- |
| G36U U41C U74A | 0.6 |
| G36U U43C A45U U54C | 0.35 |
| G36U U43C U76C | 0.14 |
| G36U U43C U78C | 0.12 |
| G36U U48C A64U U78C | 0.06 |
| G36U U60C G61C U66C | 0.05 |
| C37A C39A A56G G61A A77U | 0.11 |
| C37A C39A U54C U72C | 0.13 |
| C37A U43C U80A | 0.13 |
| C37A U48C U49C U72A U74C | 0.06 |
| C37A U51C A77G | 0.21 |
| C37G A45U A65U | 0.46 |
| C37G U41G U51C U54C U72C A75G | 0.18 |
| C37G U54A U69A C81G | 0.12 |
| C37G U66C U80C | 0.52 |
| C37U A45G A64U U67C U72A | 0.16 |
| C37U A45U U51A A56G A75U | 0.14 |
| C37U A45U U54C U58C U67C | 0.07 |
| C37U A56G A57G U72C | 0.16 |
| C37U A57G U80A | 1 |
| C37U A65G C68U | 0.24 |
| C37U A75U U78C | 0.7 |
| C37U A77C C81U | 0.79 |
| C37U C38A G70U U76A | 0.04 |

| Variant | self-cleavage |
| --- | --- |
| C37U C40U U58C A65G | 0.07 |
| C37U G42C A64G U66C | 0.07 |
| C37U G46U G55C U66C | 0.09 |
| C37U G52U U69G | 0.59 |
| C37U U41C A64U U74C | 0.11 |
| C37U U41C G53A A75G U78C | 0.22 |
| C37U U41G U49C U78C U80C | 0.07 |
| C37U U48C U54G U60A A77G | 0.13 |
| C37U U49C U51G U54C A64G | 0.13 |
| C37U U51A A56G U69C | 0.16 |
| C37U U54C U69A | 0.53 |
| C38A A45U U49C | 0.07 |
| C38A A45U U54C U72C U78C | 0.06 |
| C38A A47G U72C | 0.11 |
| C38A A56U U78C | 0.41 |
| C38A A64U C68U U72C | 0.14 |
| C38A G53C U78C | 0.13 |
| C38A U41A U51C A64G A65G | 0.28 |
| C38A U41C A47U A64G U80C | 0.14 |
| C38A U41C U60C G73A | 0.64 |
| C38A U48C A56U U60C U69G | 0.13 |
| C38A U49A U66C | 0.17 |
| C38A U49C A64G U74C | 0.43 |
